Columns and labels:
His-T7-SMN = His-T7-SMN (UniProt Q16637); assay: pull-down
His-T7-SmB′ = His-T7-SmB′ (UniProt P14678); assay: pull-down

binding result (His-T7-SMN): binds | binding result (His-T7-SmB′): binds
B1: GST-C214 S489D (domain or fragment)
chain: not shown

Reference: article PMC2839002 (Chromosoma, 2009)
